According to PubChem BioAssay AID485294 (National Center for Advancing Translational Sciences (NCATS), 2010):
Screen size: about 370,000 compounds; about 150 (0.041%) were called active. This list was built around the results that the source calls inconclusive (neither active nor inactive); the mix of calls is not that of the screen. The call rests on the fitted dose curve; in most records, active means well fitted inhibition curve with a large enough effect; inconclusive means small, poorly fitted or top-dose-only effect; inactive means flat fitted curve, though single readings scatter. Potencies of inconclusive entries are left out as doubtful fits.
Further: nearly all actives have a fitted effect of over 25% in size.
Potency means the concentration at half of the fitted maximal effect; tags describe the fitted curve by direction and shape.

These compounds were tested against Beta-lactamase (Escherichia coli (strain K12)) (UniProt P00811) (assay: qHTS Inhibitors of AmpC Beta-Lactamase (assay with detergent)). Settings: AmpC hydrolysis of nitrocefin, absorbance 480 nm, 0.01% Triton; series mostly up to 114 µM.
Chain of UniProt P00811 (P00811 whole entry, looked up): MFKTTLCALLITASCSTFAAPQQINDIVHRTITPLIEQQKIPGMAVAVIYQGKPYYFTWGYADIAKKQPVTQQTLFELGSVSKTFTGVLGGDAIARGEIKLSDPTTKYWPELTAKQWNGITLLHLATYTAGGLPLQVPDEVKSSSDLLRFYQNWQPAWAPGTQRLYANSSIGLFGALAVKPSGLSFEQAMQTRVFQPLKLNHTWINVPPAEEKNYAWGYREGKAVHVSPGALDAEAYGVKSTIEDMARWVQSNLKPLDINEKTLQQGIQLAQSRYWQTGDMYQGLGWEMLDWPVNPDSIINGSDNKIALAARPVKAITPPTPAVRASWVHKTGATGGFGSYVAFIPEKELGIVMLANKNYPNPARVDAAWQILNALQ
How it was run: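 AmpC (5.3 nM in the dispensed reagent) in 20 mM phosphate pH 7.0 with 0.01% (detergent screen) or 0.0001% Triton X-100 was preincubated with compounds for 15 min at room temperature. Nitrocefin was then added from an 800 uM solution, and hydrolysis was followed at 480 nm.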
With COc1cc(CNc2ccc(N3CCCCC3)cc2)ccc1OCC(=O)NC(C)(C)C the Potency was “inactive”.
In the case of COc1ccc(C(=O)O)cc1Nc1cc(C)nc2ncnn12, the Potency is reported as inconclusive [inhibitor, full curve, poor fit].
For O=C1/C(=C\c2ccc(-c3ccccc3Cl)o2)SC(=S)N1CC1CCCO1 (configuration not stated), the Potency was inconclusive [inhibitor, partial curve, poor fit].
With COc1ccc(Nc2cc(Nc3cccc(OC)c3)ncn2)cc1 the Potency was “inactive”.
In the case of Cc1sc2ncn(CC(=O)Nc3cccc(C(F)(F)F)c3)c(=O)c2c1S(=O)(=O)N1CCN(C)CC1, the Potency is reported as “inactive”.
In the case of N#Cc1ccc(CSc2nnc(-c3ccccn3)n2-c2ccccc2)cc1, the Potency is reported as inconclusive [inhibitor, full curve, poor fit].
With CSc1cccc(NS(=O)(=O)c2cccc3nsnc23)c1 the Potency was inconclusive [inhibitor, full curve, poor fit].
In the case of Cc1cc(C)n(Cc2ccc(C(=O)O)cc2)n1, the Potency is reported as inconclusive [inhibitor, full curve].
In the case of Cc1ccc(C(=O)c2c(N)c(C(=O)Nc3ccccc3Cl)c3ccccn23)cc1, the Potency is reported as “inactive”.
In the case of Cc1c(NS(=O)(=O)c2ccc(N3CCCCC3)c([N+](=O)[O-])c2)c(=O)n(-c2ccccc2)n1C, the Potency is reported as inconclusive [inhibitor, full curve, poor fit].
For CCCn1c(SCc2nc(-c3ccccc3OCC)no2)nnc1-c1ccc(Cl)cc1, the Potency was “inactive”.
For COC(=O)CSc1nnc(-c2ccco2)n1Cc1ccco1, the Potency was “inactive”.
For CCCN(Cc1nnc(-c2ccccc2Cl)o1)C(=O)c1cc2ccccc2o1, the Potency was inconclusive [inhibitor, partial curve, poor fit].
With O=C(Nc1ccccc1)N(C1=NCCC1)c1ccccc1 the Potency was “inactive”.
In the case of CC(C)c1ccc(NC(=O)CSc2nc(=O)n(Cc3ccccn3)c3c2CCC3)cc1, the Potency is reported as “inactive”.
In the case of N#Cc1nc(COc2cccc(Cl)c2)oc1NCCc1ccccc1, the Potency is reported as inconclusive [inhibitor, single point].
With CC(=C1C(=O)c2ccccc2C1=O)N1CCC(C(N)=O)(N2CCCCC2)CC1 the Potency was inconclusive [inhibitor, single point].
With CN(C(=O)COC(=O)c1cccc(S(=O)(=O)N2CCCCC2)c1)C1CCS(=O)(=O)C1 (configuration not stated) the Potency was inconclusive [inhibitor, full curve, poor fit].
For Cc1ccc(N2C(=O)N(CC(=O)Nc3cccc(Cl)c3)C(=O)C2C)cc1 (configuration not stated), the Potency was inconclusive [inhibitor, partial curve, poor fit].
With Cc1c(NS(=O)(=O)c2ccc3[nH]c(=O)[nH]c3c2)c(=O)n(-c2ccccc2)n1C the Potency was inconclusive [inhibitor, full curve, poor fit].
Cc1cc2cc(CN(CCCN3CCOCC3)C(=O)NC3CCCCC3)c(=O)[nH]c2cc1C was tested, and the Potency was “inactive”.
O=C1CCCCC1C(=O)c1cn(-c2ccc(Cl)c(Cl)c2)nn1 (configuration not stated) was tested, and the Potency was inconclusive [inhibitor, partial curve].
With Cc1cc(C)c(S(=O)(=O)Nc2ccc(-c3cn4ccccc4n3)cc2)c(C)c1 the Potency was “inactive”.
For CCN(CC(=O)Nc1c(F)cccc1F)C(=O)c1ccc(S(=O)(=O)N2CCCCCC2)cc1, the Potency was inconclusive [inhibitor, full curve, poor fit].
With Brc1ccccc1Cn1c(-c2cncs2)nc2ccccc21 the Potency was inconclusive [inhibitor, full curve, poor fit].
In the case of COc1ccc(N2CCN(Cc3cc(=O)oc4ccc(Cl)cc34)CC2)cc1, the Potency is reported as inconclusive [inhibitor, partial curve, poor fit].
With COc1ccc2cc(C)c3nnc(SCc4cccnc4)n3c2c1 the Potency was inconclusive [inhibitor, partial curve, poor fit].
For CC1=C(C(N)=O)C(c2ccccc2[N+](=O)[O-])n2ncnc2N1 (configuration not stated), the Potency was inconclusive [inhibitor, full curve, poor fit].
In the case of O=C(CSc1nnc(-c2ccc(Br)cc2)o1)Nc1cccc2ccccc12, the Potency is reported as inconclusive [inhibitor, full curve].
In the case of Clc1cccc(Nc2nc(-c3ccncc3)cs2)c1, the Potency is reported as “inactive”.
Clc1ccc(Cn2c(-c3cccnc3Cl)nc3ccccc32)c(Cl)c1 was tested, and the Potency was inconclusive [inhibitor, full curve].
For COc1ccc(C(=O)c2c(C)c3ccccc3n2CC(O)CNC(C)C)cc1 (configuration not stated), the Potency was inconclusive [inhibitor, full curve].
For CCCN(CCC)C(=S)Nc1cc(C(=O)OC)ccc1C(=O)OC, the Potency was inconclusive [inhibitor, partial curve, poor fit].
CCOc1ccc(N(CC(=O)N2CCN(Cc3ccccc3)CC2)S(C)(=O)=O)cc1 was tested, and the Potency was “inactive”.
In the case of COC(=O)c1sccc1NC(=O)Nc1cccc(F)c1, the Potency is reported as inconclusive [inhibitor, single point].
In the case of CC(C)[C@H](NC(=O)C1CC(=O)N(c2ccc(F)cc2)C1)C(=O)N1CCCCC1 (some centres not stated), the Potency is reported as inconclusive [inhibitor, full curve, poor fit].
O=C(c1ccc(Cl)cc1)C(CN1CCCCC1)c1ccccc1 (configuration not stated) was tested, and the Potency was “inactive”.
With CCOC(=O)C1(Cc2cccc(OC)c2)CCCN(S(=O)(=O)CC)C1 (configuration not stated) the Potency was inconclusive [inhibitor, full curve].
In the case of CCC(=O)Nc1ccc(NC(=O)c2ccco2)c(OC)c1, the Potency is reported as inconclusive [inhibitor, full curve, poor fit].
With O=C(CCN1C(=O)c2ccccc2Sc2ncccc21)Nc1ccc(F)cc1F the Potency was inconclusive [inhibitor, single point].
With CNc1cc(N2CCCC2)ccc1[N+](=O)[O-] the Potency was “inactive”.
Cc1ccc(-c2nc(=S)c3c(n2Cc2ccco2)CCCC3)cc1 was tested, and the Potency was inconclusive [inhibitor, full curve, poor fit].
In the case of O=C(Cn1c(=O)oc2cc(S(=O)(=O)N3CCCC3)ccc21)N1CCc2ccccc2C1, the Potency is reported as inconclusive [inhibitor, full curve].
With CCc1ccccc1OCC(=O)Nc1ccc(F)c(S(=O)(=O)N2CCOCC2)c1 the Potency was inconclusive [inhibitor, full curve, poor fit].
With c1ccc(OCCN2CCOCC2)cc1 the Potency was inconclusive [inhibitor, partial curve, poor fit].
In the case of CNC(=O)C1CC(=O)N(CCc2ccc(OC)c(OC)c2)C(=Nc2ccc(F)cc2)S1 (configuration not stated), the Potency is reported as “inactive”.
With CN1CCN(c2nc(-c3cccc([N+](=O)[O-])c3)nc3ccccc23)CC1 the Potency was “inactive”.
With Cn1c(Cn2c(=O)sc3ccccc32)nnc1SCC(=O)Nc1ccccc1F the Potency was inconclusive [inhibitor, full curve, poor fit].
For COc1cc2c(cc1OC)n(CC(=O)c1cccc(Cl)c1)c(=O)n1nc(CCn3nc(C)cc3C)nc21, the Potency was “inactive”.
For COc1ccc(NC(=O)COc2ccc(C(=O)c3ccc(F)cc3)cc2)cc1S(N)(=O)=O, the Potency was inconclusive [inhibitor, full curve, poor fit].
With O=C(CCc1ccc(S(=O)(=O)N2CCOCC2)cc1)NCCCN1CCCC1=O the Potency was inconclusive [inhibitor, partial curve, poor fit].
For CCCC(C)n1[nH]c(=O)c2c1NC(=O)CSC2c1ccc(OC)cc1 (configuration not stated), the Potency was inconclusive [inhibitor, full curve, poor fit].
CCc1cccc(C)c1NC(=O)C1CCCO1 (configuration not stated) was tested, and the Potency was inconclusive [inhibitor, partial curve, poor fit].
With O=C(Nc1ccc(-c2nc3ccccc3o2)c(O)c1)c1cc(-n2cnnc2)ccc1Cl the Potency was inconclusive [inhibitor, single point].
CN(C)c1ccccc1C(=O)N1CCCC(Nc2ccc(F)cc2)C1 (configuration not stated) was tested, and the Potency was “inactive”.
Cc1cccc(C)c1NC(=O)CSc1nnc(-c2ccoc2C)n1C was tested, and the Potency was “inactive”.
With CCOC(=O)C1=C(C)NC(=O)NC1c1cc2c(cc1Br)OCO2 (configuration not stated) the Potency was inconclusive [inhibitor, partial curve, poor fit].
Cc1ccc(C(=O)NCC(=O)NC2CCC(C)CC2)s1 (configuration not stated) was tested, and the Potency was inconclusive [inhibitor, full curve, poor fit].
O=C(CCCCCN1C(=O)c2ccccc2C1=O)Oc1ccc2c3c(c(=O)oc2c1)CCC3 was tested, and the Potency was inconclusive [inhibitor, partial curve, poor fit].
For CCC(CC)C(=O)Nc1cccc(SC)c1, the Potency was “inactive”.
For CCOc1ccc(CN(C)CC(=O)Nc2ccccc2C(=O)NC2CC2)cc1, the Potency was inconclusive [inhibitor, partial curve, poor fit].
With CCn1c(O)c(C=Nc2ccccc2)sc1=O the Potency was “inactive”.
In the case of CCc1cccc(CC)c1NC(=O)C(Cc1ccccc1)NS(=O)(=O)c1cccc2nsnc12 (configuration not stated), the Potency is reported as “inactive”.
In the case of CCOc1ccc(C(=O)CCC(=O)N(CC)CC(=O)Nc2c(F)cccc2F)cc1, the Potency is reported as inconclusive [inhibitor, full curve, poor fit].
For O=c1oc2ccccc2cc1-c1csc(Nc2ccc(O)cc2)n1, the Potency was inconclusive [inhibitor, full curve, poor fit].
With COC(=O)C1(C)CCc2cc(OC)ccc2C1=O (configuration not stated) the Potency was inconclusive [inhibitor, full curve].
O=C(Cn1ccc2ccccc2c1=O)NCC1COc2ccccc2O1 (configuration not stated) was tested, and the Potency was inconclusive [inhibitor, full curve, poor fit].
